Laboratory results from the CheMixHub viscosity set.
This continues a long series; more values of the same kind are listed elsewhere.

Legend:
[1] = 100 kPa
[2] = xn = mol fraction of the nth substance listed; conditions: 101 kPa

CC[n+]1ccn(C)c1.COS(=O)(=O)[O-]
[1]
Conditions	viscosity [mPa·s]
298.15 K	84.3
303.15 K	68.7
308.15 K	56.7
313.15 K	47.6

NC(N)=O + O
[2]
Conditions	viscosity [mPa·s]
293.15 K, x1 = 8.99e-05	1.004
293.15 K, x1 = 0.00018	1.003
293.15 K, x1 = 0.0002702	1.003
293.15 K, x1 = 0.000358	1.002
293.15 K, x1 = 0.00054	1.003
293.15 K, x1 = 0.001079	0.9983
293.15 K, x1 = 0.001798	1.004
293.15 K, x1 = 0.004484	1.013
294.75 K, x1 = 0.07068	1.223
298.15 K, x1 = 8.99e-05	0.8957
298.15 K, x1 = 0.00018	0.8933
298.15 K, x1 = 0.0002702	0.8915
298.15 K, x1 = 0.000358	0.8917
298.15 K, x1 = 0.00054	0.893
298.15 K, x1 = 0.001079	0.8924
298.15 K, x1 = 0.001798	0.8951
298.15 K, x1 = 0.004484	0.9018
298.15 K, x1 = 0.02	0.92
298.15 K, x1 = 0.032	0.954
298.15 K, x1 = 0.05	1.007
298.15 K, x1 = 0.07	1.069
298.15 K, x1 = 0.091	1.127
303.15 K, x1 = 8.99e-05	0.797
303.15 K, x1 = 0.00018	0.7974
303.15 K, x1 = 0.0002702	0.7979
303.15 K, x1 = 0.000358	0.7984
303.15 K, x1 = 0.00054	0.8009
303.15 K, x1 = 0.001079	0.7999
303.15 K, x1 = 0.001798	0.8041
303.15 K, x1 = 0.004484	0.8069
303.15 K, x1 = 0.0085	0.872
303.15 K, x1 = 0.0219	0.935
303.15 K, x1 = 0.032	0.766
303.15 K, x1 = 0.0994	0.991
303.15 K, x1 = 0.1318	1.087
308.15 K, x1 = 0.032	0.766
318.15 K, x1 = 0.032	0.647
